# Measurements published in PubChem BioAssay (NCATS).
# Values joined by “and” are separate entries in the source; they are usually repeats but may differ in a detail not shown here. Equal values may be shown once. The list shows a part of the results. Further columns of the screen follow, without active or inactive calls. The list favours compounds with an active or inconclusive main result.
# Test: qHTS Assay for Lipid Storage Modulators (AID 1519)
# Details: Drosophila S3 cells, BODIPY lipid droplet/cell ratio, laser cytometry; measured here: lipid channel max response; cells loaded with oleic acid
# How it was run: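 Cells seeded at 5,000 per well were treated with compounds over a concentration series and loaded with oleic acid (400 uM, as added). Lipid droplet fluorescence (488 nm excitation, 500-530 nm channel) was read by laser-scanning cytometry and normalized to 20 uM Triacsin C.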
row,SMILES,max response
1,COc1ccc(-c2nc3cnc(OC)nc3n(CCc3ccccc3)c2=O)cc1,24.6%
2,COc1cc(OC)c2c(=O)c(-c3ccc4c(c3)OCO4)coc2c1,39.5%
3,CN(C)c1ncc2nc(-c3cccs3)c(=O)n(C3CC3)c2n1,10.2%
4,COc1ncc2nc(-c3ccccc3)c(=O)n(C3CC3)c2n1,21.6%
5,CC(=O)N1CCC2(CC1)CCN(c1ccccn1)CC2,42.5%
6,COc1cc(-c2cc(=O)c3ccccc3o2)ccc1O,113%
7,COc1ccc(C(=O)N2CCC3(CCCN(c4ncccn4)C3)CC2)cc1,23.9%
8,COc1cccc(Cn2c(=O)c(-c3cccs3)nc3cnc(N4CCN(C)CC4)nc32)c1,-1.21%
9,COC1/C=C/OC2(C)Oc3c(C)c(O)c4c(O)c(c(/C=N/N5CCN(C)CC5)c(O)c4c3C2=O)NC(=O)/C(C)=C/C=C/C(C)C(O)C(C)C(O)C(C)C(OC(C)=O)C1C (stereo not given),43.2%
10,COc1ccccc1CNc1nc(-c2cccnc2)nc2ccccc12,33.7%
11,COc1cccc(-c2nc(NCc3cccs3)c3ccccc3n2)c1,34%
12,Cn1c(-c2nc(-c3ccccc3)cs2)nc2ccccc21,67.2%
13,O=c1c(-c2ccccc2)nc2cnc(N3CCOCC3)nc2n1-c1ccccc1,18.4%
14,COCCn1c(=O)c(-c2ccc(OC)cc2)nc2cnc(Oc3ccc(OC)cc3)nc21,1.15%
15,O=c1c(-c2ccccc2)nc2cnc(N3CCNCC3)nc2n1-c1ccccc1,38.2%
16,COc1ccccc1CNc1ncncc1-c1ccc(C(=O)N(C)C)cc1,67.5%
17,CN(C)c1nc(-c2cccnc2)nc2ccccc12,45.7%
18,CC[C@]1(c2ncc[nH]2)Cc2ccccc2O1,59.9%
19,COc1cccc(-c2cncnc2NCc2cccnc2)c1,52.9%
20,c1nc(NC2CC2)c2cc(-c3ccoc3)ccc2n1,46.5%

row,SMILES,max response
1,CN(Cc1ccco1)c1ncnc2ccc(-c3ccccc3C#N)cc12,34.1%
2,CC(C)c1ccc2c(c1)CC[C@@H]1[C@@](C)(CN)CCC[C@]21C,14.7%
3,Cc1cccc(/C=C\c2ccccc2)n1,115%
4,CN(C)c1ncc2nc(-c3cc(F)cc(F)c3)c(=O)n(CCc3ccccc3)c2n1,32.4%
5,COc1ccc(-c2nc3cnc(OC)nc3n(Cc3ccc(F)cc3)c2=O)cc1,31.5%
6,C[C@@H](CCc1ccc(O)cc1)NCCc1ccc(O)c(O)c1,32.9%
7,N#CCCn1c(=O)c(-c2cc(F)cc(F)c2)nc2cnc(Oc3cccc(Cl)c3)nc21,-2.37%
8,CC(C)(C)NCC(O)c1cc(O)cc(O)c1 (stereo not given),39.1% and -12.7%
9,c1ccc(Nc2nc(-c3ccoc3)nc3ccccc23)cc1,36.3%
10,CC(=O)OC1CCC2(C)C3CCC4(C)C(CC5CCCCC54C(C)=O)C3CC(=O)[C@@]2(O)C1 (stereo not given in full),75.9%
11,Cn1cccc1C(=O)N1CCC2(CC1)CCN(c1ccccn1)CC2,29.5%
12,COc1ncc2nc(C)c(=O)n(-c3ccccc3)c2n1,50.5%
13,CCNc1ncc2nc(-c3cccs3)c(=O)n(Cc3ccc(F)cc3)c2n1,26.5%
14,COc1ccc(-n2c(=O)c(-c3ccc(F)cc3)nc3cnc(OC)nc32)cc1,24.7%
15,C[C@@H]([C@H](O)c1ccc(O)cc1)N1CCC(Cc2ccccc2)CC1,53.1%
16,C=C(CO)C1Cc2c(ccc3c(=O)c4c(oc23)COc2cc(OC)c(OC)cc2-4)O1 (stereo not given),58.4%
17,Cc1cnc(CNc2nc(-c3c(C)noc3C)nc3ccccc23)cn1,25.3%
18,O=C(c1cc(C(F)(F)F)cc(C(F)(F)F)c1)N1CCC2(CCCN(Cc3ccncc3)C2)CC1,23.6%
19,CN(CCc1ccc(Cl)c(Cl)c1)CCN1CCCCCC1,49.6%
20,COc1ccccc1-c1cncnc1NCc1ccccc1,40.1%
